Source: article PMC12136788
The list shows a part of the results.

T1: UNK ZnF1-3 (human, UniProt Q9C0B0 31-174)
T1 sequence: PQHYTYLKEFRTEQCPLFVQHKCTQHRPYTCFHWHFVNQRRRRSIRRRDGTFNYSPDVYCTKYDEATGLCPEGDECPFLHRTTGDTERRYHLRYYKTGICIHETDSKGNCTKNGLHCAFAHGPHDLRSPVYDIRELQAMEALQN

B1: 46244619_46244739_2945_3pUTR_ENSG00000189079_ENST00000334344|human|control|control (ssRNA)
RNA: GGGAGUUCUACAGUCCGACGAUCGGUGAAUGGCUGGUGCAUAAGUUUGACCUUGUUGAGCUGGCUGGCUUACAAUCACUACGCUUUGUUGGGUUGGCUGCUGUGGUUGUUGAAUAGGCUGCUGUACCACUGUAGAUGAAACUUCAACAGAGGAUUGAGCAUCA
B2: chr10:36854569:36854570:-_ENSMUSG00000069662_ENSMUST00000092584|mus_hu|FALSE|FALSE (ssRNA)
RNA: GGGAGUUCUACAGUCCGACGAUCAGAACCACAAUAAAAUUUACUCCUGAUGGCAUGCAAGAUCUUCCUAAAAAUUAACCUAAGACCUAGAAGUCUCAGUAUUAUUAGAACAUAAAAAAACACAACAAAUUUGUACAUUUUAUUCAACAGAGGAUUGAGCAUCA
B3: 72619163_72628128_782_3pUTR_ENSG00000166224_ENST00000373202|human|control|control (ssRNA)
RNA: GGGAGUUCUACAGUCCGACGAUCUAUGCUUUCUGUUCCCCCAGAAGUCACACAUCCACACGAAUCUGGUCCCCCAUUGAACAGGGAACAAGCUAUCCUCACGAUUUCUGCCUCUAUCUUGCGUAGUCCUGGGAAGAUAUCUGGCAACAGAGGAUUGAGCAUCA
B4: chr1:244855233:244855234:+_ENSG00000121644_ENST00000302550|hu_mus|hu_hu_hu_mus_True|28_48 (ssRNA)
RNA: GGGAGUUCUACAGUCCGACGAUCCAUCAGAUGGUAGGCGUUGCCCUUAUACUCUUUCCCCAGUUCUUCUACAAUUUUCUCUAUAUCAUCUUCUAGGAAGUCCGUACUCCCUAAAACAACAGCUUCUUUAAAUUUAAAUGUUUCCAACAGAGGAUUGAGCAUCA
B5: chr11:77378495:77378496:-_ENSG00000048649_ENST00000308488|hu_hu|motif|central (ssRNA)
RNA: GGGAGUUCUACAGUCCGACGAUCUGAAUACUCGUCUGUGCUUCGGCCCCGCUUUCGAACUGACCGCUUUGAUUCUUUAGCGGGCUCAUCAUCUUCAGAGUUCUUGGACAAAUAGCUCUCUUCACUCUCUGAGCUGGAAAGUCUCAACAGAGGAUUGAGCAUCA
B6: chr12:103220134:103220135:+_ENSMUSG00000041781_ENSMUST00000047357|mus_hu|FALSE|FALSE (ssRNA)
RNA: GGGAGUUCUACAGUCCGACGAUCGAAAGGGUAGUUAAUUUGAUAAUAGACGUCAUUUUUUUUGGUCCAGAAACAGCAAGCUAGAAGAGUUGAUAUCUUAGUCGUAUAUAUGAUGAAACACCAGGAAUUCUGAAGAGUUCUUUACAACAGAGGAUUGAGCAUCA
B7: chr10:57939204:57939205:+_ENSMUSG00000003226_ENSMUST00000003310|mus_hu|motif|central (ssRNA)
RNA: GGGAGUUCUACAGUCCGACGAUCAGAUGGCCUUAAUCCUUCACCCGGCAUGGGCUGAACAAAAUUAGUUUUCCCAAAUUCGGUAGUCUUAGAUUCUGCAGAUCUUGAAGCAUGAGCUGCAAUCGGAGGUUUUGUGAAAUAUCCCAACAGAGGAUUGAGCAUCA
B8: chr11:87793471:87793472:-_ENSMUSG00000020483_ENSMUST00000020775|mus_mus|mus_mus_mus_hu_False|48_78 (ssRNA)
RNA: GGGAGUUCUACAGUCCGACGAUCUGGACUUGAAAAUAAAAGAAUAAGCUGGAUCCCCCCACCCCUUACAUUGUCAACCCUACACGAGUUCUGAAUGGGCGACUCAUGAAAAUCAGCAGCUCAAACGGCAAUGACCACCCCACCCAACAGAGGAUUGAGCAUCA
B9: chr6:87000925:87000926:+_ENSMUSG00000029992_ENSMUST00000113658|mus_hu|FALSE|FALSE (ssRNA)
RNA: GGGAGUUCUACAGUCCGACGAUCUUUGAUUAGGGUCUCCAGGAUUUCUCGUCUCGUUCGAGGAACAUGGUAGUUUAAGUAAGCAAAUAUACCACACAUGAUGCCGGAGACACGGCCCGCGAGGCCAGGGGCGAGUGGCUGGCGCAACAGAGGAUUGAGCAUCA
B10: chr12:53620312:53620313:+_ENSMUSG00000035133_ENSMUST00000110725|mus_hu|motif|central (ssRNA)
RNA: GGGAGUUCUACAGUCCGACGAUCAGGUUUAAUAGGUGGAGGCACUUUAUGGUUGCGUUCAUGGUCAUGACAGUUUGGGGUACGGUGAAUAGGAUACUCAUUUCCUUCCAAAUCUAAUCUAUAUCUGGAACGGUCACUAGGUGUCAACAGAGGAUUGAGCAUCA
B11: chr17:65944371:65944372:-_ENSMUSG00000024091_ENSMUST00000024897|mus_hu|motif|central (ssRNA)
RNA: GGGAGUUCUACAGUCCGACGAUCGGGCCUCACACAGUACCGGCGAGGUGCUGUAGUCUUCACUUUGAAACACACUUUUCGGUCCGAUGGAUUUCGCAAUUUAAGAUUUGUAGUGACUACAUCUGUGAAGGGGCCUUUGAAUUUCAACAGAGGAUUGAGCAUCA
B12: chr10:62048396:62048397:-_ENSMUSG00000020075_ENSMUST00000045866|mus_hu|motif|central (ssRNA)
RNA: GGGAGUUCUACAGUCCGACGAUCAGCUUCCACAGCUCCCUUCUCCUCUAUCAGCUUCUCAGCUGAUUGUUUGAAGUGACGGAUGGCAGUGGGAGGCACGGAAUCCAAAAGCCUGAUGGCAUCUUUGCUGGAAGCUUUUAUUAUCAACAGAGGAUUGAGCAUCA
B13: chr11:87793471:87793472:-_ENSMUSG00000020483_ENSMUST00000020775|mus_mus|mus_mus_mus_hu_False|88_108 (ssRNA)
RNA: GGGAGUUCUACAGUCCGACGAUCUGGGGGCUGGGGAAAAAGAAUAAGCUAGAUUUCCCACCCCCCCACAUUGUCAACCCUACACGAGAGUUUUGAAGGCGACUCAUGAAAAUCAGCAGCUCAAACGGCAAUGACCACCCCACCCAACAGAGGAUUGAGCAUCA
B14: chr2:46850943:46850944:+_ENSG00000119878_ENST00000238892|hu_mus|FALSE|FALSE (ssRNA)
RNA: GGGAGUUCUACAGUCCGACGAUCGUAGGCGCAGCCUUGACAGUAAUGAGAACCUGGCUGGUGUACAGAACUUUUACAAAUUCUGCAAGUGGAGAACUUAUUUUUUCCAUAUGGAUCAAACCUUGCUUUUUUCGAAGUCAAAGCCAACAGAGGAUUGAGCAUCA
B15: 93373553_93456162_161_5pUTR_ENSMUSG00000056608_ENSMUST00000048665|mouse|control|control (ssRNA)
RNA: GGGAGUUCUACAGUCCGACGAUCUGAAGCAUCAGAAUCCUGAGAGGAAGAGGUAGGAAAGGAGACAGACGCUGUCUCAGACUCUGGAUCCCACGGAUUCUGCAAUCGUCAGGAGUGCCACAGAGCAGGCUGUGUGUGUCUGUGCAACAGAGGAUUGAGCAUCA
B16: chr14:89338683:89338684:+_ENSG00000165533_ENST00000346301|hu_hu|FALSE|FALSE (ssRNA)
RNA: GGGAGUUCUACAGUCCGACGAUCGUUGUUGUUGUUGACCAGAGCCAGCCUGAAGCACUGAUGGGCCAAAUUUGUAUCUCCUAUUCCCACAGCUACAUGUCCCAAGUUGUACCAGACAUCAGCUGCCUCUUCUUCAUUUUCAGCCAACAGAGGAUUGAGCAUCA
B17: chr11:107358869:107358870:+_ENSMUSG00000020720_ENSMUST00000021063|mus_hu|motif|central (ssRNA)
RNA: GGGAGUUCUACAGUCCGACGAUCCUCUGGAAGUUGAUAAUUCCUGCUAAUCUGUCUACUUUAGCAAAGAUGGUCUUGUUAACGGCGGGAUUUGAGAGAAAGGCUUCGGACUCAUCAACAGAUAGAUCCAGAAGCUGUGCCAUCCAACAGAGGAUUGAGCAUCA
B18: chr7:141441981:141441982:+_ENSG00000106028_ENST00000265304|hu_mus|hu_hu_hu_mus_False|18_38 (ssRNA)
RNA: GGGAGUUCUACAGUCCGACGAUCCUCAUGUCUUACAAACUGACGAAAUACCUGUAACACAGGUCUUCGAAACAUGGCUUCUGUUUUUCUUACAACCAGUCUAAUCUGCUUUUCCUACCUGACGAUCAGAAAAGAGAAAAAUGACAACAGAGGAUUGAGCAUCA
B19: chr2:181286759:181286760:+_ENSMUSG00000000826_ENSMUST00000072334|mus_mus|motif|central (ssRNA)
RNA: GGGAGUUCUACAGUCCGACGAUCGUGUUAACUGAACAUUAGAAGGGUAGGAAAGGUCAUAAACAUUGCACAGAAUCAUCGGAAGUAAUCUUAAAAUACAGUCAAAAGGAAGACAAGGAAAGACAUCACUGGGCACAAACAGAACAACAGAGGAUUGAGCAUCA
B20: chr11:77336104:77336105:-_ENSG00000074201_ENST00000525064|hu_mus|hu_hu_hu_mus_False|48_68 (ssRNA)
RNA: GGGAGUUCUACAGUCCGACGAUCCUCACACAUUGCUGUGAACAUCGCCUCCAAUGCUGACUUAUCACUAGGCACAAAUCGAAAUUCAGUAAUAGGUUCAACAUCAUCAUUGUCUUCCUCAUCUUCAUCAGAGAGAGGUUCUUUCAACAGAGGAUUGAGCAUCA
B21: chr5:122941739:122941740:-_ENSMUSG00000029467_ENSMUST00000031423|mus_hu|FALSE|FALSE (ssRNA)
RNA: GGGAGUUCUACAGUCCGACGAUCUCUUUCCUGCCAUACACCCACAAUUGCAUUGGCUACUAAUAUGAGUAAAAUUACAAAAGGUUCUACAAAGGCUGUAAUUGUUUCUUCACCUUCUUCAAACCAAGCCAAAACAAAAGAUAUCAACAGAGGAUUGAGCAUCA
B22: chr10:120833061:120833062:-_ENSG00000107581_ENST00000369144|perfect_dup|motif|central (ssRNA)
RNA: GGGAGUUCUACAGUCCGACGAUCCUGAGAUUCUUCUUUAGCAGCUUCAGUUUUUUCCUCUGCCAUUUUCAAAUAUGCCCGGACAACAUCCUCCAGAGAUUUUAUGUUCACCUGUUGACAAAUGUUCUUAUACUGGUAUAACCCCAACAGAGGAUUGAGCAUCA

Each binder was assayed against T1, UNK ZnF1-3 (assay: nsRBNS (natural sequence RNA bind-n-seq); RBNS binding buffer (assumed for nsRBNS): 25 mM Tris pH 7.5, 150 mM KCl, 3 mM MgCl2, 0.01% Triton X-100, 500 ug/ml BSA, 20 U/ml SUPERase-In, 4 C; UNK is unkempt and MSI1 is Musashi-1; names of the RNAs are library labels; protein concentration not given here; high values mean tight binding).

In order of rising binding signal:
1. B5  0.442 enrichment R
2. B10  0.652 enrichment R
3. B16  0.659 enrichment R
4. B1  0.678 enrichment R
5. B14  0.748 enrichment R
6. B11  0.763 enrichment R
7. B22  0.789 enrichment R
8. B20  0.835 enrichment R
9. B18  0.852 enrichment R
10. B7  0.876 enrichment R
11. B3  0.897 enrichment R
12. B15  0.902 enrichment R
13. B9  0.906 enrichment R
14. B12  0.909 enrichment R
15. B21  1.23 enrichment R
16. B4  1.29 enrichment R
17. B2  1.42 enrichment R
18. B17  1.49 enrichment R
19. B13  1.72 enrichment R
20. B8  1.73 enrichment R
21. B6  1.84 enrichment R
22. B19  2.34 enrichment R
